Test results reported in the RNAGym collection of RNA variant scans (doi:10.1073/pnas.2313332121).
This sample is rich in variants without activity.

B1: TPR 5TU (parent)
chain: GGAUCUUCUCGAUCUAACAAAAAAGACAAAUCUGCCACAAAGCUUGAGAGCAUCUUCGGAUGCAGAGGCGGCAGCCUUCGGUGGCGCGAUAGCGCCAACGUUCUCAACUAUGACACGCAAAACGCGUGCUCCGUUGAAUGGAGUUUAUCAUG

Variants of: B1
Assay: polymerase ribozyme fitness, log enrichment relative to wild type (log ratio); higher = more active; in vitro selection for triplet polymerase activity
How it was run: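 One round of in vitro selection, in triplicate, was applied to PCR-built, transcribed mutant libraries of each subunit of a heterodimeric triplet polymerase ribozyme. The steps were annealing with a biotinylated primer, partner subunit and triplets, incubation frozen at −7 °C, gel excision of extended constructs, streptavidin-bead capture and RT-PCR. Fitness is the logarithm, base 2, of genotype enrichment over wild-type enrichment from inverse-variance-weighted replicate averages of Illumina-sequenced inputs and outputs, keeping genotypes with ≥10 input reads and ≥1 read per output.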

Polymerase ribozyme fitness (log ratio), -2.13:
U4G G58A C85U A115U U144G

Polymerase ribozyme fitness (log ratio), -4.11:
U4G A20G C35U G94C A97G C118A A137G A142U

Polymerase ribozyme fitness (log ratio), -0.818:
U4C G94C C116G

Polymerase ribozyme fitness (log ratio), ≤ -4.2:
U4G C14G G48U G62A C76G A119U A122U C132G U144G
U4C A39G U82C A107U
U4G G48C G70A G81A G83A G124A G136A
U4G A12U C32G G67C C72U C93G
U4A A37C A40C C87U U101G A115C G141C
U4G A24C G84U G86U C108U A122G U151C
C5A A16G A24U C27A A41C G68A U77C G124A C125G
U4G U6G A22C A73G G83C
U4C U7G C87A G100A U101A
U4C C18U A41C A60C C79U C87U A98C U101C G133U C149U
U4C G50A G68U G86A
U4G A30C U78C C95G A119C
U4C A60U G74A C93U A106U A107U A150C
U4G A49G C87G
A3U U53A C87A A106U
U4G C36U G48U G92U A120G G141C U144C
U4G A41C A137C
U4G C85A C87G A89G C95G
U4G U77C U102C G124U C125A
U4A C8G U61G U78A G88C A89C
A3U U55C G58U C85A A107G G140C
A3U U44G A52G C79A C103A A121U
U4C A28G C38U C69U C87G G133A
U4A A24G G50U G83C C85U A98G
A3U U53A C54U G80C G92U G126A C131A
U4C U6G U55A C93G C103G A150U
U4G C18G A40G G42C C57U G59A C93G
U4C C8U A23G A60U G68A C79A C116U C125G
U4A U44A U61A G92C
A3U U15G A19C A39C U44G U55A C57U A60G C63A G84A A110U A120C
U4A A17G A29C G94C U102G A142U
U4G A22U G50C C57U C76G U82C A107G A115C A137U
U4G A23C C79A G92C G100A
U4G C10G C14A A23U C36G U55A C87A U90G G94C C116A A138G U145A
U4A U7A C14G A30C A39U U56A C116U G141U G143A U148G
U4G A16U U90C A91G G124A U144A
U4G G84U A107U G140A
U4A A23G C57G G58C A60C U77A
U4C A22C C32A A41U G126A
U4G A24C C27U C43U G88U U130G
U4C U6A A40U C95U G143U
U4C C18G A41C C75U C93G A120G
U4C C5U A23C A47C C79A C85G U90C G117U G152U
C5A A12U A21G G80A G84A A91G G124U G140U
U4A C10A A40U C57A G71A G86U A107G
A3U U7A A37U G67U A91C G143A
U4A C38A A47G G94U C118G C129A
U4A A47G U55A A106G A113U A138G
A3U U7G C75G C85G
U4C U7G C27U U31A G68U G88U
U4A A16G A37U A91G G124U
A3U U53A U82C C87G C96U C125G
U4C A21G G42A G48C G50C A64U G84C U102G U127A
U4A C14A A22C G42A U45A C87G C103U
U4A A20G C93G
U4A C8U A24C C96U
U4G A30U C57G G58A C93U
A3U U7C U56A G58C A60C G70C G88A G94A A115U
U4C A17U G50U G58A G92C C99U G117U
U4G C75G C85A A107U U144C
U4C A20U C27G C85A A110G U135C G136U G143C
U4A A16U A52U A60G G84U U102A C125A U135G
U4A A24G U53A U55G G83U G84C C87U
U4C C87G A107G
U4C G50C U56A G74A C87A G88U C116U
U4A A19C C87A A119G
U4C A22C C32G G86C A91C C95G
U4C C54U U55A C76U C85A C95G U127A U151C
U4C A16U C57A C99U U130G U148G
U4G A23U C75U A97G
U4C U56A G84A A110U A119C A150C G152A

Polymerase ribozyme fitness (log ratio), -0.873:
U4G C85U

Polymerase ribozyme fitness (log ratio), -3.39:
U4G U6G C85U G141A

Polymerase ribozyme fitness (log ratio), -3.02:
U4G A40C A49G C96A

Polymerase ribozyme fitness (log ratio), -3.6:
U4A C54U G92U C118U U134A

Polymerase ribozyme fitness (log ratio), -3.3:
U4C C5A A24U A41G G46C C85U C96G

Polymerase ribozyme fitness (log ratio), -1.05:
U4G C8U U56A G84A

Polymerase ribozyme fitness (log ratio), 0.413:
C5A A20C

Polymerase ribozyme fitness (log ratio), -2.9:
U4C A26U C69U

Polymerase ribozyme fitness (log ratio), -0.918:
U4C G86A

Polymerase ribozyme fitness (log ratio), -1.06:
U4A G59A
